The whole screen tested about 190,000 compounds, of which about 360 (0.19%) were called active. Inconclusive results, whose numbers are uncertain, are shown with a selection of clear calls.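 How the source made its calls: active means GTP binding activity at least 20 points away from 100%, either lowered or raised; inconclusive means signal likely due to the compound's own green fluorescence; inactive means the rest.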
What follows are compounds tested against Ras-related protein Rab-2A (Canis lupus familiaris) (UniProt P61105) (assay: Rab2 wt fluorescent GTP binding changes, either direction – biochemical, dog, bead-based flow cytometry, multiplex, primary screen (AID 760;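 further: 0% = beads with excess unlabeled GTP and 100% = no-compound control corrected for plate trend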)). Settings: GST-Rab2 wt beads, Bodipy-GTP binding, at 10 µM.

GTP binding activity, inactive:
O=C(C1=C[C@H](c2coc3ccccc3c2=O)C[C@H](OCCCCO)O1)N1CCOCC1 100%
O=C(CCNC(=O)c1ccco1)Nc1ccc(N2CCOCC2)cc1 101%
C#CCOCCOCCOCCNc1nc(N2CCN(C(=O)[C@H](CCCCN)n3cc(C(N)CO)nn3)CC2)nc(N2CCN(C(=O)[C@H](CCC(=O)O)n3cc(C(N)[C@H](C)CC)nn3)CC2)n1 (stereo partly specified) 99%
CC(NC(=O)C(=O)N/N=C/c1ccc(Cl)cc1)c1ccccc1 (stereo unspecified) 98%
Cc1ccccc1NC(=O)c1ccc(NC(=O)C2CC(=O)OC23CCCCC3)cc1 (stereo unspecified) 87%
COc1cc(OC)nc(Oc2cc(/C=N/O)ccc2OC)n1 97%
Cc1[nH]c2ccccc2c1C(=O)NS(=O)(=O)Nc1ccc(Cl)cc1 97%
CCOC(=O)C(/C(C)=N/NC(=O)C1CC1c1ccccc1)C(C)C (stereo unspecified) 102%
Cc1ccc(NC(=O)/C(=C/c2cccc(Br)c2)NC(=O)c2ccco2)cc1 96%
O=C(N/N=C/c1ccc2nccnc2c1)c1cccc([N+](=O)[O-])c1 86%
COc1ccc(C(=O)CC(Nc2ccc([N+](=O)[O-])cc2)c2ccc(Cl)cc2)cc1 (stereo unspecified) 96%
COc1cccc(N2CCN(C(=O)CCCCCNc3nc(=S)[nH]c4ccccc34)CC2)c1 83%
COc1ccc(/C=N/NC(=S)Nc2cc(S(=O)(=O)N3CCOCC3)ccc2N2CCOCC2)cc1O 116%
NC(=O)NCCCC(=O)OCC(=O)c1ccc2ccccc2c1 100%
CCN(CC)CCN(C(=O)c1c(F)cccc1F)c1nc2cc(C)cc(C)c2s1 97%
CCO/C=C1\C(=O)N(c2ccc(OCC)cc2)C(=O)c2ccccc21 93%
C=CCOc1cccc(C(=O)N2CCCC(CNS(=O)(=O)c3cccs3)C2)c1 (stereo unspecified) 91%

GTP binding activity, active:
Cc1cc2ccccn2c1C(=O)c1cc([N+](=O)[O-])cc([N+](=O)[O-])c1 42%
COc1ccc(-c2nnc(S/C(=C/c3ccc(Cl)cc3)C(=O)O)o2)cc1 75%
O=C(O)C1C2C=CC(C2)C1C(=O)N1CCOCC1 (stereo unspecified) 36%
Nc1[nH]n2c(=O)c3c(nc2c1N=Nc1ccccc1)CCCC3 71%
Cc1sc2nc3c4ccccc4c(NCc4ccco4)nn3c(=O)c2c1C 74%

GTP binding activity, inconclusive:
c1ccc(-c2csc(N3CCOCC3)n2)cc1 101%
COc1cc(/C=C(/C#N)c2ccc(F)cc2)ccc1Oc1ccc([N+](=O)[O-])cn1 104%
CC(C)(C)C1=C(C#N)C(c2cccnc2)C(C#N)=C(N)O1 (stereo unspecified) 100%
Cc1ccc(-c2cc(=O)[nH][nH]2)c(C)c1 105%
C=CCNc1nc(N)c(C(=C(C#N)C#N)c2ccc(Br)cc2)s1 89%
Cc1ccc(N=C2S/C(=C\c3cn(CC(=O)O)c4ccccc34)C(=O)N2C)cc1 87%
CCN(CC)C(=O)CSc1nc2ccccc2c(=O)n1-c1cccc(OC)c1 104%
CSc1nnc(C)c(/C=C/Nc2ccc(C)cc2)n1 70%
CC(C)(C)NC(=O)Cn1cnc2cc([N+](=O)[O-])ccc2c1=O 82%
COc1ccc(S(=O)(=O)N2CCN(CC(=O)Nc3cccc(F)c3)CC2)cc1 112%
Cc1ccc(C2(C)NC(=O)N(CCOc3ccccc3)C2=O)cc1 (stereo unspecified) 107%
O=C1Cn2c(nc3ccccc32)-c2ccccc2N1 103%
COc1ccc(S(=O)(=O)NNC(=O)c2cccs2)cc1 89%
CC1(C)CC(O)C(C(O)c2cccc([N+](=O)[O-])c2)C(C)(C)N1 (stereo unspecified) 104%
Cc1cccc(NC(=O)c2ccc([N+](=O)[O-])cc2Cl)n1 102%
Cc1ccc(C(=O)n2nc(-n3cccc3)c3c(C)cc(C)nc32)cc1 88%
Cc1ccc(-c2cc(C(=O)NCc3cccs3)no2)cc1 92%
CN(CCCNC(=O)c1cn(C)c2ccc(S(=O)(=O)N(C)C)cc2c1=O)c1ccccc1 104%
O=C(COc1cccc(Cl)c1)Nc1nc(-c2ccc(S(=O)(=O)N3CCOCC3)cc2)cs1 101%
CCc1ccc(N2C(=O)C3ON(c4ccccc4)C(c4ccco4)C3C2=O)cc1 (stereo unspecified) 105%
CC1CCc2cc(F)ccc2N1C(=O)CSc1nnc2c(n1)[nH]c1ccc(F)cc12 (stereo unspecified) 86%
Cc1ccc(-c2nc3ccccc3[nH]2)cc1NC(=O)c1ccc2c(c1)OCO2 103%
Cc1cc(NC(=O)c2cc3n(n2)C(C(F)(F)F)CC(c2ccco2)N3)no1 (stereo unspecified) 102%
COc1ccc(C(=O)NC(C)(C)C)cc1S(=O)(=O)N1CCCC1 104%

— PubChem BioAssay AID760 (NMMLSC, 2007)
